The supplement of paper PMC4166925
± gives the standard deviation of the averaged measurements. Whole data set: some 33,000 sequences, median “E-score (dimensionless, -0.5 to 0.5)” near -0.046, cut for the highest 2% near 0.36. Some of the results follow.

test system: T1, SpTbr T-box DNA-binding domain (GST fusion); assay: PBM E-score of 8-mer (E-score (dimensionless, -0.5 to 0.5)); Tbr is Tbrain of the sea star Patiria miniata (Pm) or the sea urchin Strongylocentrotus purpuratus (Sp); higher = stronger binding preference; most listed sequences are background and not binding sites; settings: the construct has about 5 more residues each side
T1 sequence: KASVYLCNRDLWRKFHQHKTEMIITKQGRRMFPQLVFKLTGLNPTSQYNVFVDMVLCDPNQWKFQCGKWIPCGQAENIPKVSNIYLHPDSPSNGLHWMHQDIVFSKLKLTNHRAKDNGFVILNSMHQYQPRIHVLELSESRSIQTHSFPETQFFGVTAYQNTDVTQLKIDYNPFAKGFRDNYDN
Outline: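 Expression of GST-fused Tbr T-box DNA-binding domains, each holding the full T-box plus roughly five flanking residues, was carried out in BL21 E. coli at 20 °C, with purification by glutathione affinity chromatography. Universal Agilent arrays made double-stranded by primer extension were incubated with the protein at 200 nM in PBS (pH 7.5), then scanned and quantified. All ungapped 8-mers were scored from probe intensities, and each received an enrichment E-score from the Universal PBM Analysis Suite, averaged over duplicate arrays.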

Sequence	PBM E-score of 8-mer
CACAGCAC	0.218 ± 0.028
GGCTACAC	0.0183 ± 0.004
AATTTTCG	0.0998 ± 0.027
AGGACAAG	-0.105 ± 0.1
GGATCAAA	-0.0491 ± 0.031
AAAGACGA	-0.0625 ± 0.044
GGATCGCC	-0.191 ± 0.016
GACAGGTA	0.104 ± 0.0041
AGGGAGAG	-0.0232 ± 0.035
ATGTTTCA	-0.181 ± 0.054
GAAGGGAC	-0.00202 ± 0.015
AAGACCAT	-0.17 ± 0.032
CCGGGACC	-0.187 ± 0.015
CGTATATA	-0.0571 ± 0.062
CTCACAAG	0.173 ± 0.039
GAGATCAA	-0.113 ± 0.019
AAGCTGAT	-0.176 ± 0.038
CCTATAGA	-0.103 ± 0.0043
CCCCGAAG	-0.174 ± 0.043
AGTTCTCC	-0.062 ± 0.011
CTAAATCC	-0.125 ± 0.04
GCTTGTAA	-0.0483 ± 0.034
ATCCATGG	-0.315 ± 0.004
CGGGATTC	-0.0949 ± 0.03
AACGCTAA	0.108 ± 0.031

Sequence	PBM E-score of 8-mer
CTTTGGTC	-0.163 ± 0.0098
AGGTAGGC	-0.0842 ± 0.03
AGCACTAA	0.0592 ± 0.043
CACGTCGA	0.16 ± 0.051
CATTGAGG	-0.197 ± 0.078
CCTTGGTA	0.0315 ± 0.045
ATGAAATC	-0.289 ± 0.0011
GGAGTACC	-0.109 ± 0.13
ACACCCGA	0.41 ± 0.0072
GCTGAACC	-0.192 ± 0.034
AAGATTCC	-0.0742 ± 0.086
CCCCCTAC	-0.0895 ± 0.036
CCAATGAA	-0.176 ± 0.028
CGTGTATC	-0.0584 ± 0.0034
ACCACTGA	-0.0358 ± 0.066
ATATAGTC	-0.0444 ± 0.027
GGAACCGA	-0.0955 ± 0.0058
AGTATATG	-0.0228 ± 0.01
CATTGACA	0.236 ± 0.066
CCCTCGTA	-0.2057 ± 0.00097
CGCCCGGC	0.0599 ± 0.078
AGGGCGTG	0.281 ± 0.01
CCAACGCG	0.107 ± 0.039
AACGCCAT	0.199 ± 0.029
ATGACCAT	-0.171 ± 0.015

Sequence	PBM E-score of 8-mer
CACGAAGG	-0.0263 ± 0.044
CTGCATGA	-0.225 ± 0.0059
AACGACGT	-0.0362 ± 0.0024
CCCGGCGA	-0.121 ± 0.072
CCCCTAAC	-0.1309 ± 0.00067
CATCACAG	0.184 ± 0.0071
GCAAACGA	-0.00505 ± 0.014
ACGCGAGA	0.219 ± 0.016
CTATCTTC	-0.114 ± 0.011
GAGCAAAC	-0.0726 ± 0.047
GAAGCGGA	0.0338 ± 0.064
AGGACTAT	-0.234 ± 0.035
GTTCGAAA	-0.108 ± 0.0034
AAGTTTTA	-0.109 ± 0.015
ATAGGTTC	-0.0885 ± 0.014
AACCCCCT	-0.177 ± 0.046
CGTTATCA	0.223 ± 0.079
CTTATGAA	-0.0887 ± 0.019
TACAGTAA	0.00315 ± 0.044
ATTACATG	-0.0895 ± 0.061
ATGACGGG	-0.00892 ± 0.0049
CATGGAAG	-0.278 ± 0.023
AAGCAATC	-0.0241 ± 0.019
AAAGTAGC	-0.0267 ± 0.0034
ACTCTGTA	-0.0995 ± 0.052

Sequence	PBM E-score of 8-mer
GAGGTTGC	0.114 ± 0.063
AGAACTCC	-0.209 ± 0.051
GTGGGGTA	-0.0652 ± 0.013
ACTCGTTG	0.09144 ± 0.00069
TGTTCGAA	0.0771 ± 0.019
AACATGAA	0.0383 ± 0.048
GAAATCGA	-0.0416 ± 0.02
CCCTTCGA	-0.0189 ± 0.0027
AGAATCCT	-0.101 ± 0.021
TAGTGTCA	0.395 ± 0.032
AGCTTCAA	-0.215 ± 0.026
TCCCGGAA	-0.207 ± 0.042
AAGACAGC	-0.14 ± 0.013
ATTTTAAC	-0.00251 ± 0.09
ATTCACCC	-0.224 ± 0.03
CTCGTTTC	-0.0614 ± 0.019
CGAGGCAC	0.0764 ± 0.042
CCGTAATA	-0.133 ± 0.02
CGAGAGAA	0.0858 ± 0.029
GGAATTAC	-0.207 ± 0.056
CGCTCTCA	0.0769 ± 0.043
AATAGGAT	-0.223 ± 0.01
TACGTTGA	-0.0845 ± 0.015
AATGTGGA	-0.0688 ± 0.0046
CATTCAGG	0.0471 ± 0.042

Sequence	PBM E-score of 8-mer
ACAGGCAA	-0.22 ± 0.02
CATAGGGC	-0.147 ± 0.017
GACGGGTA	-0.0387 ± 0.015
AGAGCGGC	-0.0073 ± 0.081
ATATGATC	-0.293 ± 0.016
ATTGCCAA	0.102 ± 0.047
GTGAAGCA	0.141 ± 0.0029
GCCAAAGA	-0.00282 ± 0.078
CGGTGTGA	0.456 ± 0.0098
GAATGCGC	-0.136 ± 0.13
ATGACTAA	-0.237 ± 0.011
CCTGGGGA	0.0714 ± 0.018
ACCGATGC	-0.0885 ± 0.078
CAAGAGCG	0.0244 ± 0.094
GTAGACAC	0.255 ± 0.016
CAGGTAAA	-0.0495 ± 0.055
CACACCGA	0.291 ± 0.036
GGTTGACA	0.382 ± 0.017
ACATAACT	-0.0591 ± 0.004
CATGCGAG	0.106 ± 0.012
GCTGAGCC	-0.168 ± 0.088
AAGAAAGG	-0.215 ± 0.021
AGCTTCAG	-0.0258 ± 0.022
AGAAAATG	-0.151 ± 0.052
ACAGGGAT	-0.165 ± 0.057

Sequence	PBM E-score of 8-mer
ATCGAAGC	-0.147 ± 0.031
ACCAACCA	0.0847 ± 0.0076
CAGGGACC	-0.289 ± 0.052
CGTCGTTC	0.134 ± 0.022
AGCCCCAT	-0.258 ± 0.046
CCATGGGA	-0.117 ± 0.07
CATGAGAA	-0.122 ± 0.04
CCTGGGTA	-0.162 ± 0.032
CTTCCGTC	0.0392 ± 0.058
CCGGGGCA	-0.152 ± 0.019
CCATTCAC	0.24 ± 0.027
AAAACCCT	-0.29 ± 0.022
CGTTTACA	0.235 ± 0.029
CCATCTAG	-0.0568 ± 0.011
GCTGCTAC	-0.0699 ± 0.14
GATACTGA	-0.116 ± 0.036
CCCATTAC	-0.0958 ± 0.0029
GGGCCGAC	-0.138 ± 0.094
ACTCGGCG	-0.00275 ± 0.1
CTTGCTAA	0.0253 ± 0.12
ACCGTATG	-0.112 ± 0.066
ACCAAGAT	-0.115 ± 0.0078
AGTGAAGG	0.119 ± 0.032
CCACCAAA	0.0467 ± 0.057
GATGGGCA	-0.147 ± 0.056

Sequence	PBM E-score of 8-mer
CAAGTCAA	0.0648 ± 0.039
ACAGTCCA	-0.123 ± 0.0018
TAATGCTA	-0.25 ± 0.0095
GGTTCCTA	-0.228 ± 0.018
ACAAGAGG	-0.0502 ± 0.064
CAACCATG	0.134 ± 0.032
AGCTTGAG	-0.264 ± 0.045
CCGCGGCA	0.1 ± 0.067
GTGGCTCA	0.0493 ± 0.011
ATCTCCAG	-0.125 ± 0.028
CGCTTCCC	0.0609 ± 0.082
AAAATCTG	-0.015 ± 0.025
TAGTAGCA	-0.149 ± 0.078
AAAGCACC	-0.146 ± 0.12
ATCTGTGA	0.31 ± 0.0036
CGTATGAG	0.035 ± 0.042
AGAGTTCG	-0.121 ± 0.068
GTGACGTA	0.123 ± 0.029
AGTTCCAG	-0.201 ± 0.0053
CGTAAGGA	0.132 ± 0.043
ATCGATGA	-0.0913 ± 0.098
CCTCTCCC	0.0362 ± 0.0014
